Measured values as given in PubChem BioAssay AID2675 (National Center for Advancing Translational Sciences (NCATS), 2010).
In all, about 280,000 compounds went through this assay and about 100 (0.036%) were called active. The inconclusive results got no clear call from the source; some entries with a clear call stand among them for comparison. The call rests on the fitted dose curve; in most records, active means well fitted inhibition curve with a large enough effect in the signal ratio, with a control signal flat (not every such curve was filed as active); inconclusive means small, poorly fitted or top-dose-only effect, or effect the other way, or a change in a side signal; inactive means no such curve, though single readings can be large or run the other way; the % refers to the signal ratio. Where the call is inconclusive, the potency comes from a doubtful curve fit. “Side channel” marks fits to a control or component signal instead of the main read-out.

Each compound was assayed against Muscleblind-like protein 1 (Homo sapiens) (UniProt Q9NR56) (assay: qHTS Assay for Inhibitors of MBNL1-poly(CUG) RNA binding). Conditions: TR-FRET MBNL1-His/biotin-(CUG)12 binding, 665/545 ratio; activity change, negative = inhibition: at 57.5 µM (top of the series).
Sequence of UniProt Q9NR56 (Q9NR56 whole entry, looked up): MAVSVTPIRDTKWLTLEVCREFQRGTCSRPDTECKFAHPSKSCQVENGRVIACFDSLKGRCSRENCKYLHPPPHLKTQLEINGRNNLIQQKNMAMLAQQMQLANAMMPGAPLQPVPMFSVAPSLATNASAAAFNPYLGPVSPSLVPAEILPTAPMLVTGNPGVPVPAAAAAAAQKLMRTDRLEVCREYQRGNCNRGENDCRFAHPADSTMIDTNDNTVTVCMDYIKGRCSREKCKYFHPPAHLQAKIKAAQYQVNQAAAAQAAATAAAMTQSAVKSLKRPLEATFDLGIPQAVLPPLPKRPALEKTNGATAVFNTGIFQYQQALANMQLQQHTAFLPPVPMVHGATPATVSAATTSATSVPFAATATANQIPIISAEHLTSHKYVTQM
How it was run: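 Ratiometric TR-FRET (665 over 545 nm, excitation 340 nm) tracks disruption of MBNL1-His/biotin-(CUG)12 complex after 60 min at room temperature, with compounds at 92 nM to 58 uM final.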
On the % scale 0 is the no-effect control and ±100 the full control effect; potency means the concentration at half of the fitted maximal effect; tags describe the fitted curve by direction and shape or compound fluorescence and quenching.

SMILES	Potency	activity change, negative = inhibition
COc1ccccc1CNC(=O)C(C)Sc1ccsc1[N+](=O)[O-] (stereo not given)	inconclusive: 35.5 µM [quencher, side channel, single point]	
COc1ccc(CCNC(=O)COC(=O)/C=C/c2ccc(OC)c(OC)c2)cc1	inconclusive: 17.8 µM [quencher, side channel, partial curve]	
COc1ccc(/C=C2\SC(N)=NC2=O)cc1	inconclusive: 15.8 µM [quencher, side channel, partial curve]	
COc1ccc(CCN(Cc2ccccn2)C(=S)Nc2ccccc2Cl)cc1OC		inactive: -7.97%
COc1cc(/C=C(/NC(=O)c2ccccc2)C(=O)Nc2ccccc2)c([N+](=O)[O-])cc1OC	inconclusive: 20 µM [quencher, side channel, partial curve]	
CC(C)[C@@H]1NC(=O)c2cc([N+](=O)[O-])cc(I)c2NCCCC[C@@H](C(=O)NC(CC(=O)O)C(N)=O)NC(=O)[C@H](CO)NC1=O (stereo not given in full)	inconclusive: 17.8 µM [quencher, side channel, partial curve]	
CC1(C)CC(=O)C2=C(C1)O[C@@]1(CCCCN3C(=O)c4ccccc4C3=O)Cc3cc(C#N)ccc3C2O1		inactive: -1.81% [at 11.5 µM]
O=C1/C(=N\O)Cc2ccccc21	inconclusive: 20 µM [quencher, single point]	
CC(=O)Nc1ccc(Nc2nnc(-c3ccc(O)cc3)c3ccccc23)cc1	inconclusive: 28.2 µM [quencher, side channel, partial curve]	
O=c1c(Cl)c(O)c2cccc3c4ccccc4n1c23		inactive: -22.2%
COc1ccc(N2C(=O)CC(N(CCc3ccccc3)C(=O)c3ccccc3)C2=O)cc1 (stereo not given)		inactive: -5.82%
Cc1ccc2nc3cc([N+](=O)[O-])cc([N+](=O)[O-])c3cc2c1	inconclusive: 35.5 µM [quencher, side channel, single point]	
CC(=O)N/N=C/c1ccc(OCCOc2ccc(Br)cc2)cc1		inactive: -7.59%
CCn1c(=N)c(S(=O)(=O)c2ccccc2)cc2c(=O)n3ccccc3nc21	inconclusive: 2.51 µM [quencher, side channel, partial curve, poor fit]	
CCn1c(-c2cc(-c3ccc(C)cc3)nc3ccccc23)n[nH]c1=S		inactive: 4.59%
O=C(Nc1ccc(Cl)c(Cl)c1)OCc1cncs1		inactive: -1.33%
Cc1cccc(-n2cnc3cc([N+](=O)[O-])ccc32)c1	inconclusive: 28.2 µM [quencher, side channel, partial curve]	
OCCNCc1cccc(OCc2ccc(Cl)cc2)c1		inactive: 0.522%
N#Cc1cn(CC(=O)N2CCCc3ccccc32)c2ccccc12	inconclusive: 39.8 µM [quencher, side channel, partial curve, poor fit]	
CS(=O)(=O)N(CC(=O)N1CCN(Cc2ccccc2)CC1)c1cccc([N+](=O)[O-])c1	inconclusive: 11.2 µM [quencher, side channel, partial curve]	

SMILES	Potency	activity change, negative = inhibition
CCOc1ccc(/C(O)=C2/C(=O)C(=O)N(CCOCCO)C2c2ccccn2)cc1 (stereo not given)	inconclusive: 31.6 µM [quencher, side channel, single point]	
Cc1ncc([N+](=O)[O-])n1CCOC(=O)c1ccc(Cl)cc1Cl	inconclusive: 12.6 µM [quencher, side channel, partial curve]	
Cn1cccc1/C=C1\SC(=S)N(NC(=O)c2ccccc2)C1=O	inconclusive: 8.91 µM [quencher, side channel, partial curve]	
CCn1cc(CN2CCC(C(=O)Nc3cccc(-c4cccc(F)c4)c3)CC2)cn1		inactive: -7.84%
CCCOC(=O)CN1C(=O)c2ccc(C(=O)OCCC)cc2C1=O	inconclusive: 15.8 µM [quencher, side channel, partial curve]	
Cc1ccc(S(=O)(=O)N[C@@H](Cc2ccccc2)C(=O)CCl)cc1		inactive: -13.2%
COc1ccc(NC(=O)CSc2nc3c(c(-c4cccs4)c2C#N)CN(C)CC3)cc1OC	inconclusive: 15.8 µM [quencher, side channel, partial curve]	
CN(C)c1ccccc1C(=O)c1ccccc1N(C)C	inconclusive: 28.2 µM [quencher, single point]	
COc1cccc(NC(=O)NC(=O)c2c(C)cc(Cl)nc2Cl)c1	inconclusive: 126 µM [inhibitor, single point]	
COc1ccc(C2/C(=C(/O)c3ccc(S(=O)(=O)N4CCOCC4)cc3)C(=O)C(=O)N2CCN2CCOCC2)cc1 (stereo not given)	inconclusive: 28.2 µM [quencher, side channel, single point]	
COc1cc(OC)c(OC)cc1CNC(=O)c1cc(=O)[nH]c2ccccc12		inactive: 2.69%
CCOc1ccc(CSCCNC(=S)Nc2ccc(OC)cc2)cc1		inactive: -7.39%
N#CC1=C(N)OC2=C(CN(Cc3ccccc3)C/C2=C\c2cccnc2)C1c1cccnc1 (stereo not given)	inconclusive: 8.91 µM [quencher, side channel, single point]	
CCN1CCN(C(c2cccc(OC)c2OC)c2nnnn2Cc2ccco2)CC1 (stereo not given)		inactive: -9.67%
COc1ccc(-n2nc(C(=O)NCC(=O)Nc3ccc(F)cc3)c3ccccc3c2=O)cc1	inconclusive: 8.91 µM [fluorescent, side channel, full curve]	
COc1ccc(Oc2ncccc2[N+](=O)[O-])cc1	inconclusive: 12.6 µM [quencher, partial curve]	
COc1ccc(-c2c(=O)n(OC)c3ccccc3[n+]2[O-])cc1OC	inconclusive: 14.1 µM [quencher, side channel, partial curve]	
O=C(C#Cc1ccccc1)c1ccco1	inconclusive: 10 µM [quencher, side channel, partial curve]	
N#C/C(=C/c1ccc(N2CCOCC2)o1)C(=O)N1CCOCC1	inconclusive: 25.1 µM [quencher, side channel, partial curve]	
CN1C(=O)NC(c2cccc([N+](=O)[O-])c2)C2=C1CC(C)(C)CC2=O (stereo not given)	inconclusive: 15.8 µM [quencher, side channel, partial curve]	
